Structures are written as SMILES. Counter-ions that a name gives are not always drawn. This is one part of the list. Many values rest on one well or one pass, so single values are uncertain. Where only a bound is given, the exact number is not on record here.

The text below walks through data of the supplement of paper PMC7266297.

The test system of one experiment is KB-3-1. Kind of experiment: growth inhibition relative to DMSO control (SRB); cervical cancer cells: KB-3-1 is the parent and KB-V1 overexpresses MDR1; SRB is the sulforhodamine B stain; higher = more growth inhibition. The settings on record: 1 µM; 72 h.
For another experiment, the system named is KB-V1. The description is as above. The settings on record: 1 µM; 72 h.
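Note: Read-out is SRB optical density at 490 nm, with the control being wells given 0.5% DMSO vehicle, and compound added one day after cells were plated.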

On to `Cn1cnc(N)c2ncnc1-2` [3-Methyladenine], for which the growth inhibition with KB-3-1 and in the experiment on KB-V1 was less than 0% in each case.

With `CC(=O)Nc1cccc(-n2c(=O)n(C3CC3)c(=O)c3c(Nc4ccc(I)cc4F)n(C)c(=O)c(C)c32)c1`, the growth inhibition in the experiment with KB-3-1 and in the experiment on KB-V1 was less than 0% in each case.

Take `COc1ccc(Cl)cc1NC(=O)Nc1cc(C)nc2ccccc12`: the growth inhibition in the experiment with KB-3-1 amounted to 52.2%; in the experiment with KB-V1 it was 16.7%.

Consider `C/C(=N\NC(=S)N1CCC1)c1ccccn1`, for which the growth inhibition with KB-3-1 came out at 90.9%; in the experiment with KB-V1, 87.2%.

Take `CN(C)CCOc1ccc(/C(=C(/CCCl)c2ccccc2)c2ccccc2)cc1` [Toremifene Citrate]: the growth inhibition is 51.5% in the experiment with KB-3-1 and 23.3% in the experiment on KB-V1.

Turning to `CNC(=O)c1ccc(N2C(=S)N(c3cnc(C#N)c(C(F)(F)F)c3)C(=O)C23CCC3)cc1F`, the results for the growth inhibition in the experiment on KB-3-1 and in the experiment on KB-V1 were 10.3% and 5.67%, respectively.

For `O=C1NC(=O)C(c2ccccc2[N+](=O)[O-])=C1Nc1ccc(O)c(Cl)c1`, the growth inhibition with KB-3-1 and in the experiment on KB-V1 was less than 0% throughout.

As for `CN(C)CCC=C1c2ccccc2CCc2ccccc21` [Amitriptyline HCl], the growth inhibition with KB-3-1 was less than 0%; with KB-V1 it was 17.5%.

Regarding `C=CC[N+]1([C@H]2C[C@H]3[C@@H]4CC[C@H]5C[C@H](O)[C@@H](N6CCOCC6)C[C@]5(C)[C@H]4CC[C@]3(C)[C@H]2OC(C)=O)CCCC1` [Rocuronium Bromide], the figures for the growth inhibition in the experiment on KB-3-1 and with KB-V1 were 14.4% and 32.1%, respectively.

`Nc1cccc2c1C(=O)N(C1CCC(=O)NC1=O)C2=O` (stereo unspecified) [Pomalidomide]: the growth inhibition with KB-3-1 was 35.8%; in the experiment with KB-V1, 19.3%.

For `Cn1c(=O)c(F)c(Nc2ccc(I)cc2F)c2c(=O)n(C[C@@H](O)CO)cnc21`, the growth inhibition in the experiment on KB-3-1 stood at 34%; in the experiment with KB-V1, 3.73%.

`c1ccc(CC2=NCCN2)cc1` [Tolazoline HCl]: the growth inhibition in the experiment with KB-3-1 came to 21.7%; in the experiment on KB-V1, 37.8%.

As to `O=S(=O)(c1ccccc1)N(CC(F)(F)F)c1ccc(C(O)(C(F)(F)F)C(F)(F)F)cc1`, the growth inhibition in the experiment on KB-3-1 is 25.6%; in the experiment on KB-V1 it was 24.5%.

As for `NC12CC3CC(CC(C3)C1)C2` [Amantadine HCl], the results for the growth inhibition in the experiment on KB-3-1 and in the experiment with KB-V1 were 28.7% and 13.8%, respectively.

On to `CC(C)c1cc(C(=O)N2Cc3ccc(CN4CCN(C)CC4)cc3C2)c(O)cc1O`, for which the growth inhibition in the experiment with KB-3-1 was found to be 91.7%; in the experiment with KB-V1, 70%.

For `COc1cc(N2CCC(N3CCN(C)CC3)CC2)ccc1Nc1ncc(Cl)c(Nc2ccccc2S(=O)(=O)C(C)C)n1`, the growth inhibition was 97.9% in the experiment with KB-3-1 and 92.1% with KB-V1.

Turning to `CN(C)CC(c1ccc(O)cc1)C1(O)CCCCC1` (stereo unspecified) [Desvenlafaxine], the growth inhibition with KB-3-1 is 17.1%; with KB-V1, less than 0%.

Regarding `COCCc1ccc(OCC(O)CNC(C)C)cc1` (stereo unspecified) [Metoprolol Tartrate], the growth inhibition in the experiment with KB-3-1 amounted to 52.2%; in the experiment on KB-V1 it was 19.6%.

With `COC(=O)N[C@@H](C)CNc1nccc(-c2cn(C(C)C)nc2-c2cc(Cl)cc(NS(C)(=O)=O)c2F)n1`, the growth inhibition in the experiment with KB-3-1 is 28.9%; in the experiment on KB-V1, less than 0%.

For `CCNC(=O)c1noc(-c2cc(C(C)C)c(O)cc2O)c1-c1ccc(CN2CCOCC2)cc1`, the growth inhibition in the experiment with KB-3-1 worked out at 91.7%; in the experiment with KB-V1, 79.7%.

For `COc1ccc(CCc2nc3cc(-c4c(C)noc4C)ccc3n2C[C@H](C)N2CCOCC2)cc1Cl`, the values for the growth inhibition in the experiment on KB-3-1 and in the experiment with KB-V1 were 20.6% and 18.8%, respectively.

Turning to `CC(C)(C#N)c1cc(Cn2cncn2)cc(C(C)(C)C#N)c1` [Anastrozole], the growth inhibition was determined as 31% with KB-3-1 and 37.2% with KB-V1.

Turning to `CC(C)NCC(O)c1ccc(O)c(O)c1` (stereo unspecified) [Isoprenaline HCl], the growth inhibition in the experiment with KB-3-1 stood at 31%; with KB-V1, 15.6%.

In the case of `CCCCCCCN(CC)CCCC(O)c1ccc(NS(C)(=O)=O)cc1` (stereo unspecified) [Ibutilide Fumarate], the growth inhibition with KB-3-1 and in the experiment on KB-V1 was less than 0% in each case.

Turning to `COc1ccccc1Oc1c(NS(=O)(=O)c2ccc(C(C)(C)C)cc2)nc(-c2ncccn2)nc1OCCO` [Bosentan Hydrate], the growth inhibition in the experiment with KB-3-1 and in the experiment on KB-V1 was less than 0% throughout.

As to `COc1cc(CCc2cc(NC(=O)c3ccc(N4CC(C)NC(C)C4)cc3)n[nH]2)cc(OC)c1` (stereo unspecified), the results for the growth inhibition with KB-3-1 and in the experiment on KB-V1 were 32.7% and 41%, respectively.

As to `COc1c(N2C[C@@H]3CCCN[C@@H]3C2)c(F)cc2c(=O)c(C(=O)O)cn(C3CC3)c12` [Moxifloxacin HCl], the growth inhibition in the experiment with KB-3-1 came to 33.7%; with KB-V1, 22.1%.

As to `COc1ccc(CNC(=O)Nc2ncc([N+](=O)[O-])s2)cc1`, the growth inhibition is 47.2% with KB-3-1 and 14.2% with KB-V1.

As for `O=C(O)c1ccc(C=C2SC(=S)N(c3cccc(C(F)(F)F)c3)C2=O)cc1`, the growth inhibition is 3.98% in the experiment on KB-3-1 and less than 0% in the experiment on KB-V1.

Take `O=C1NCCc2[nH]c(-c3ccncc3)cc21`: the results for the growth inhibition with KB-3-1 and in the experiment with KB-V1 were less than 0% and 4.69%, respectively.

For the compound `C[S+]([O-])c1ccc(-c2nc(-c3ccc(F)cc3)c(-c3ccncc3)[nH]2)cc1` (stereo unspecified), the growth inhibition in the experiment with KB-3-1 stood at 10.6%; in the experiment on KB-V1, 21.2%.

`C=CC(=O)Nc1ccc2ncnc(Nc3cccc(Br)c3)c2c1`: the growth inhibition in the experiment with KB-3-1 turned out to be 5.13%; with KB-V1 it was 29.5%.

Take `Cc1nn(-c2ccccc2)c(C)c1C=NN1CCN(Cc2ccccc2)CC1`: the growth inhibition with KB-3-1 was found to be 7.63%; in the experiment with KB-V1 it was 3.67%.

With `COc1cc2c(cc1Cc1cccc(Cl)c1F)c(=O)c(C(=O)O)cn2[C@H](CO)C(C)C` [Elvitegravir (GS-9137, JTK-303)], the growth inhibition was 49.8% in the experiment with KB-3-1 and 19.6% with KB-V1.

On to `CCOC(=O)[C@H](CCc1ccccc1)N[C@@H](C)C(=O)N1Cc2ccccc2C[C@H]1C(=O)O` [Quinapril HCl], for which the growth inhibition with KB-3-1 and with KB-V1 was less than 0% in each case.

With `CCN(CC)CCCCNc1ncc2cc(-c3cc(OC)cc(OC)c3)c(NC(=O)NC(C)(C)C)nc2n1`, the values for the growth inhibition with KB-3-1 and in the experiment with KB-V1 were 18.8% and 68.6%, respectively.

Consider `c1ccc2c(c1)CCCC2C1=NCCN1` (stereo unspecified) [Tetrahydrozoline HCl], for which the values for the growth inhibition with KB-3-1 and in the experiment with KB-V1 were 7.63% and 7.06%, respectively.

Take `Nc1ncn([C@H]2C[C@H](O)[C@@H](CO)O2)c(=O)n1` [Decitabine]: the growth inhibition was 61.3% with KB-3-1 and 51.1% in the experiment with KB-V1.

In the case of `CN1C2CCCC1CC(NC(=O)c1nn(C)c3ccccc13)C2` (stereo unspecified) [Granisetron HCl], the figures for the growth inhibition in the experiment on KB-3-1 and in the experiment with KB-V1 were 10.4% and 31.4%, respectively.

Consider `CCn1cc(-c2ccnc3[nH]c(-c4cccc(CN(C)C)c4)cc23)c(-c2ccc(NC(=O)N(C)C)cc2)n1`, for which the growth inhibition in the experiment with KB-3-1 is less than 0%; in the experiment on KB-V1 it was 67.3%.

For `Cc1c(C(=O)Nc2ccc(N3C[C@@H](C)O[C@@H](C)C3)nc2)cccc1-c1ccc(OC(F)(F)F)cc1` [LDE225 (NVP-LDE225,Erismodegib)], the results for the growth inhibition in the experiment on KB-3-1 and in the experiment on KB-V1 were less than 0% and 17.8%, respectively.

As to `Nc1nc(N)c2nc(-c3ccccc3)c(N)nc2n1` [Triamterene], the growth inhibition in the experiment with KB-3-1 amounted to 45.6%; with KB-V1, 14.7%.

`CCNC(=O)c1[nH]nc(-c2cc(Cl)c(O)cc2O)c1-c1ccc(OC)cc1`: the values for the growth inhibition with KB-3-1 and in the experiment on KB-V1 were 58.1% and 17.9%, respectively.

As for `CC(C)(C)C(=O)OCOP(=O)(COCCn1cnc2c(N)ncnc21)OCOC(=O)C(C)(C)C` [Adefovir Dipivoxil], the figures for the growth inhibition with KB-3-1 and in the experiment on KB-V1 were 53.4% and 24.5%, respectively.

Consider `Cc1c(-c2ccc(O)cc2)n(Cc2ccc(OCCN3CCCCCC3)cc2)c2ccc(O)cc12` [Bazedoxifene HCl], for which the growth inhibition in the experiment on KB-3-1 is less than 0%; with KB-V1 it was 25.2%.

For the compound `C=CC(=O)Nc1ccc2ncnc(Nc3ccc(OCc4cccc(F)c4)c(Cl)c3)c2c1`, the growth inhibition turned out to be 31.2% with KB-3-1 and 36.4% in the experiment on KB-V1.

Consider `CN(NC(=O)CC(=O)NN(C)C(=S)c1ccccc1)C(=S)c1ccccc1` [Elesclomol (STA-4783)], for which the growth inhibition in the experiment on KB-3-1 stood at 97.3%; with KB-V1 it was 99.2%.

As for `CN(C)Cc1c(C(=O)NCCOc2ccc(C(=O)NO)cc2)oc2ccccc12`, the growth inhibition came out at 94.8% in the experiment with KB-3-1 and 91.9% in the experiment on KB-V1.
